Measured values reported in paper PMC4336329 (PLoS ONE, 2015).
Out of some 310,000 compounds screened, about 2,200 (0.71%) showed an effect of 50% or more. The effect is printed as a negative number. This is one part of the list.

The molecules below were run against human ether-à-go-go-related gene (hERG) potassium channel (human, UniProt Q12809) (assay: primary screen, population patch clamp on CHO cells stably expressing hERG).
human ether-à-go-go-related gene (hERG) potassium channel, sequence (Q12809 whole entry, looked up): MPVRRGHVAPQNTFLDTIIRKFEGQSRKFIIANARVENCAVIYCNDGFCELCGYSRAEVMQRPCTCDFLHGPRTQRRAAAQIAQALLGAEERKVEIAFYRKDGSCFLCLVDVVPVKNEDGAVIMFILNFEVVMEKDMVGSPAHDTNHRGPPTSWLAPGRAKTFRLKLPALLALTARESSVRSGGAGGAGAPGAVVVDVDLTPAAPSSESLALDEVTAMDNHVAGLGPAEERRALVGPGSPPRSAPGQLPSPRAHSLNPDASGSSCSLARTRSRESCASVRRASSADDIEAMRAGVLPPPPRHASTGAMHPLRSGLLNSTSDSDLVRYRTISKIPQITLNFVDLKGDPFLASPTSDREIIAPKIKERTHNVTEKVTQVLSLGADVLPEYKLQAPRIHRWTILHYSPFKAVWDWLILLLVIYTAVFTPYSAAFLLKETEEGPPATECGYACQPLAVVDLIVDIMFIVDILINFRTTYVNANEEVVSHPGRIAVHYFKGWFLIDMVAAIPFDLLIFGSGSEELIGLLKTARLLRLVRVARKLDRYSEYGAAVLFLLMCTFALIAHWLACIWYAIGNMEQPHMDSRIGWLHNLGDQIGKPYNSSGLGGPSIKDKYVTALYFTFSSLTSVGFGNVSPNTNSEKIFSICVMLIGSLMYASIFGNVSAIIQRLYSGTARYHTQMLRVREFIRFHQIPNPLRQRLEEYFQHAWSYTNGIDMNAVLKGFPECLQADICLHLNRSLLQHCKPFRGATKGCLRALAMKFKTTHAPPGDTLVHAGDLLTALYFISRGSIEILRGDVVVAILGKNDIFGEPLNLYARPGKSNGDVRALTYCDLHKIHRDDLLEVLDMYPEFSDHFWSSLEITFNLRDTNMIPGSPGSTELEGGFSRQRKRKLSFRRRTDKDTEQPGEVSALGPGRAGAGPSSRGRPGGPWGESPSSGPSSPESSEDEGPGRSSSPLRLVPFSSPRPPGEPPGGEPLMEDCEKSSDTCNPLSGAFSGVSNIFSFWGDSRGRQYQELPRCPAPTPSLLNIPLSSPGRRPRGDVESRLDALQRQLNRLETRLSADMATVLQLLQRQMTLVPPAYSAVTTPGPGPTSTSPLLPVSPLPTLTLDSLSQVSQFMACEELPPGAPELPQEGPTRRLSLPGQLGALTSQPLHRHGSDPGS

| SMILES | hERG current change (%, negative = inhibition) at 1uM [%] |
| --- | --- |
| CCC(=O)N1c2ccc(S(=O)(=O)CCC(=O)NCc3ccc4c(c3)OCO4)cc2CC1C (centres unmarked) | 13.2 |
| N#Cc1cccc(NC(=O)CN2NS(=O)(=O)c3ccccc3C2=O)c1 | 12.2 |
| CC1CCc2sc(C(=O)OCC(=O)NCc3ccccc3)cc2C1 (centres unmarked) | 19.7 |
| Cc1ccccc1-c1nc(CS(=O)(=O)CC(=O)NCCCN2CC(C)CC(C)C2)c(C)o1 (centres unmarked) | -4.36 |
| NC(=O)C1CCN(C(=O)COc2ccc3ccccc3c2Br)CC1 | -2.9 |
| Cc1cccc(N2CCN(C(=O)C3CCN(S(=O)(=O)c4cccc5nsnc45)CC3)CC2C)c1 (centres unmarked) | 12.1 |
| CCC(Oc1ccccc1)C(=O)Nc1ncc([N+](=O)[O-])s1 (centres unmarked) | 13.3 |
| Cc1ccc2cc(CCNC(=O)C(C)C)c(=O)[nH]c2c1 | 10.6 |
| Cc1cccc(NS(=O)(=O)c2cc(Cl)ccc2Cl)n1 | 20.5 |
| COc1ccccc1CNC(=O)CN1C(=O)c2cccc(N)c2C1=O | 14.6 |
| COC(=O)Cc1c(O)ccn(CCc2c[nH]c3ccc(OC)cc23)c1=O | 2.61 |
| O=C(c1cccc(S(=O)(=O)N2CCOCC2)c1)N(CCO)Cc1ccccc1 | -3.66 |
| Cc1ccc(/C=C2\SC(=S)N(CCCC(=O)Nc3ccccn3)C2=O)cc1 | 3.9 |
| CCN(C(=O)C1CCN(c2nc(-c3ccc(OC)cc3)no2)CC1)c1ccc(OC)cc1 | 0.576 |
| COc1ccc(S(=O)(=O)N2CCOCC2)cc1NC(=O)CC1CC2CCC1C2 (centres unmarked) | 9.21 |
| O=C(O)Cc1nc(-c2cccnc2)sc1-c1ccc(Br)cc1 | 12.3 |
| CC(C)CN1C(=O)c2ccc(C(=O)NCc3ccc4c(c3)OCO4)cc2C1=O | 11.9 |
| Cc1cc(Nc2ccc(F)c(Cl)c2)n2nc(C)nc2n1 | 0.637 |
| COc1cccc(C2C3=C(CCCC3=O)Nc3nc(-c4cc(OC)c(OC)c(OC)c4)nn32)c1 (centres unmarked) | -1.48 |

| SMILES | hERG current change (%, negative = inhibition) at 1uM [%] |
| --- | --- |
| O=C(CNC(=O)c1ccc(Cl)cc1Cl)OCc1ccccc1 | 20.4 |
| O=c1[nH]c(=S)[nH]c2sccc12 | 10 |
| COc1ccc(Br)c2oc(SC)cc(=O)c12 | 8.07 |
| Cc1cc(C)c(S(=O)(=O)N2CCCOC2CNC(=O)C(=O)NCc2ccco2)c(C)c1 (centres unmarked) | 10.7 |
| CN(C)CCCn1c(N)c(C#N)c2nc(C#N)c(C#N)nc21 | 11.4 |
| C=CCn1c(CCCNC(=O)C(C)(C)C)nc2ccccc21 | 13.6 |
| C/C(=N\NC(=O)CSc1nnc(C)s1)c1ccc(O)cc1 | 11.2 |
| CCC/C=C(\CCC)C(NS(=O)(=O)c1cccc2cccnc12)c1ccc(C(=O)OC)cc1 (centres unmarked) | 12.9 |
| CC(/C=C1\SC(=S)N(C(C(=O)O)C(C)C)C1=O)=C\c1ccccc1 (centres unmarked) | 9.28 |
| O=C(NCCN1CCN(Cc2ccccc2)CC1)Nc1cc(Cl)cc(Cl)c1 | -15.5 |
| COc1ccc(CCNC(=O)Cn2ccc3cc(S(=O)(=O)N4CCCC4)ccc32)cc1OC | 4.41 |
| COC(=O)NCC(c1cccnc1)N1CCN(c2ccccc2F)CC1 (centres unmarked) | 7.13 |
| CCOc1ccc(S(=O)(=O)N2CCN(Cc3ccccc3)CC2)cc1 | 14.6 |
| CN(C)/C=C1\C(=O)N(c2ccc(Oc3ccccc3)cc2)CS1=O (centres unmarked) | -1.41 |
| O=C(CSc1nnc(-c2ccco2)n1Cc1ccccc1)OC1CCCCC1 | -8.46 |
| CCC(CC)=N/N=C/c1c(O)n(CC)c2cc(C3=NNC(=O)CC3)ccc12 | 16.1 |
| COc1ccc(NC(=O)CSc2ccccn2)cc1 | 18 |
| Cc1cc(NC(=O)c2cccc(S(=O)(=O)N3c4ccccc4CC3C)c2)no1 (centres unmarked) | -7.64 |
| Cc1cc(N2CCN(c3cccc(C)c3C)CC2)nc(-c2ccccc2)n1 | -4.61 |

| SMILES | hERG current change (%, negative = inhibition) at 1uM [%] |
| --- | --- |
| Cc1nc(C)n(C(C)CNS(=O)(=O)c2ccc(Cl)cc2)n1 (centres unmarked) | 11.7 |
| CCc1ccccc1NS(=O)(=O)c1ccc2[nH]cc(C(=O)NCC3CCCO3)c(=O)c2c1 (centres unmarked) | 6.57 |
| O=C1CCC(C(=O)OCc2c(Cl)cccc2Cl)N1 (centres unmarked) | 9.54 |
| O=C(NNS(=O)(=O)c1ccc([N+](=O)[O-])cc1)c1cnn(-c2ccccc2)c1-n1cccc1 | 6.21 |
| COc1cccc(C(=O)N2CCOCC2)c1OC | 11 |
| COC(=O)C1CN(C#N)N(c2ccc(Cl)cc2)C12c1ccccc1-c1ccccc12 (centres unmarked) | 13.4 |
| COc1ccc(C(=O)c2sc3nc(C)cc(-c4cccs4)c3c2N)cc1OC | 6.28 |
| CCCC(=O)NC(=S)Nc1ccc(N2CCN(C(=O)c3cccs3)CC2)cc1 | 14 |
| CN(C)N1C(N)=C(C#N)C(c2ccsc2)C2=C1CC(C)(C)CC2=O (centres unmarked) | 7.75 |
| CCC(C)c1ccccc1NC(=O)c1cccnc1 (centres unmarked) | 12.6 |
| O=C(/C=C/c1ccc(OC(F)F)cc1)OCC(=O)N1CCC(c2ccccc2)=N1 | 1.59 |
| CCn1c(C)[n+](CC(O)COCC2CC=CCC2)c2ccccc21.[I-] (centres unmarked) | 13.4 |
| NC(=O)c1cccc(NC(=O)Nc2ccc(Cl)cc2)c1 | 20.2 |
| CC/C(=N\NC(=S)Nc1cc(C)ccc1C)c1ccc(OC(F)F)cc1 | 2.88 |
| COC(=O)Nc1nn(Cc2ccccc2F)cc1Br | 26.5 |
| CCc1ccc(CN(C)C(=O)c2cc(COc3ccc(-n4cncn4)cc3)on2)cc1 | -9.83 |
| O=C(N/N=C/c1ccc([N+](=O)[O-])cc1)c1[nH]ncc1Br | 9.98 |
| Cc1cc(OCC(=O)Nc2ccccc2F)nc(C(C)C)n1 | 2.94 |
